# Measurements reported in PubChem BioAssay AID463173 (ICCB-Longwood Screening Facility, Harvard Medical School, 2010).
# Out of some 52,000 compounds screened, about 1,700 (3.3%) were called active. Rule as the data show it: active = survival mostly below about 52% (no sharp cut-off); inactive = mostly above about 56%. Some of the results follow.
# Test system: Wild type
# Assay: growth inhibition of S. aureus wild type versus tarO mutant, primary screen, teichoic acid synthesis inhibitors, RN4220, OD600 (AID 463173)
# Conditions: S. aureus RN4220 wild type/DeltatarO growth, OD600, 18 h, stronger effect = lower value, screened at 18.75 µg/mL (by protocol)
row,Structure (SMILES),survival
1,CC(=O)N1c2ccccc2C(=O)C1N1CCN(c2ccc(F)cc2)CC1 (configuration not stated),inactive: 67%
2,CC(=O)N(Cc1cccnc1)Cc1cc2cc3c(cc2[nH]c1=O)OCCO3,inactive: 103%
3,COc1ccc(NC(=O)c2ccc(CNS(=O)(=O)c3ccc4c(c3)C(C)(C)C(=O)N4C)cc2)cc1,inactive: 114%
4,COc1cccc(CNC(=O)C2CCCN(c3ncnc4onc(-c5ccc(F)cc5)c34)C2)c1 (configuration not stated),inactive: 99%
5,Cc1c(C)n(Cc2ccccc2)c2ccc(C(=O)NCCc3ccccc3Cl)cc12,inactive: 72%
6,CC(C)OCCCNC(=O)CN1C(=O)CSc2ccc(S(=O)(=O)N3CCCCC3)cc21,inactive: 73%
7,Cc1oc(C(=O)O)cc1CSC(C)C(=O)O (configuration not stated),inactive: 115%
8,O=C(Nc1ccc2c(c1)N(C1CCCC1)C(=O)c1ccccc1S2)c1cccc(F)c1,inactive: 53%
9,CC(C)Oc1ccc(CNC(=O)CCn2c(=O)c3cccn3c3ccc(F)cc32)cc1,inactive: 75%
10,COc1cccc(-n2c(=O)c3c(C)c(C(=O)N(C)C)sc3n(CC(=O)Nc3ccc(C)cc3Cl)c2=O)c1,inactive: 88%
11,O=C1CC(c2nc(-c3cccc(Cl)c3)no2)CN1c1ccc2c(c1)OCCO2 (configuration not stated),inactive: 148%
12,Cc1ccc(Cl)cc1NCc1nnc2n1CCCCC2,inactive: 75%
13,O=C(NCCc1csc(-c2cccc(F)c2)n1)c1ccc(Br)o1,inactive: 73%
14,O=c1c2cc3sccc3n2cc(-c2ccccc2)n1-n1cccc1,inactive: 116%
15,Cc1n[nH]c(C)c1S(=O)(=O)N(CC(=O)NCc1ccccc1Cl)c1ccc(C(C)C)cc1,inactive: 67%
16,Cc1ccc(-n2nnnc2C2CCN(S(=O)(=O)c3ccc(OC(F)(F)F)cc3)CC2)cc1,inactive: 115%
17,Cc1ccc(OCC(O)CN2C(=O)NC(C)(C)C2=O)c(Cl)c1 (configuration not stated),inactive: 110%
18,CCN(C(=O)Cn1c(=O)oc2cc(S(=O)(=O)N3CCCC3)ccc21)c1cccc(C)c1,inactive: 80%
19,CCOc1ccccc1CNC(=O)CCc1cn(Cc2ccc(Cl)cc2)c2ccccc12,inactive: 77%
20,CC1(C)CC(=O)c2cnc(N)nc2C1,inactive: 112%
21,Nc1nonc1/C(=N/O)N1CCCC1,inactive: 102%
22,Cc1ccc(NC(=O)CN2C(=O)COc3ccc(S(=O)(=O)N4CCCCCC4)cc32)cc1C,inactive: 91%
23,COCCCNC(=O)CSc1nc2ccccc2c(=O)n1Cc1ccco1,inactive: 75%

row,Structure (SMILES),survival
1,CCOc1ccc(CCNC(=O)c2c(C)oc3ncnc(N4CCOCC4)c23)cc1,inactive: 76%
2,Cc1cc(C)cc(NC(=O)CN(C)S(=O)(=O)c2ccc3[nH]c4c(c3c2)CCCC4)c1,inactive: 75%
3,COc1ccc(C(=O)Nc2ccc(OCc3cc(=O)n4ccccc4n3)cc2)cc1,inactive: 72%
4,CCC(C)(C)c1nnc(N)s1,inactive: 104%
5,N#C/C(=C\c1ccc(-c2ccc(F)cc2F)o1)c1nc2ccccc2[nH]1,inactive: 38%
6,CCOc1cccc(CNc2ccc(O)cc2)c1OCc1ccccc1Cl,inactive: 54%
7,COc1ccc(CNC(=O)c2ccc3[nH]c(C)c(C)c3c2)c(OC)c1,inactive: 71%
8,CN1C(N)=NC(=O)C1(CO)CO,inactive: 104%
9,CC(=O)n1c2ccccc2c2cc(Cl)ccc21,inactive: 112%
10,CCc1nnc2c(NCCc3ccc(OC)c(OC)c3)nc3ccccc3n12,inactive: 133%
11,Cc1ccc2cc(C#N)c(SCC(=O)N3CCCC3)nc2c1,inactive: 110%
12,O=C1CC(c2ccco2)CC(O)=C1C=NCCN1CCNCC1 (configuration not stated),inactive: 113%
13,COc1ccc(-c2onc(C)c2C)cc1S(=O)(=O)NCc1ccc(Br)cc1,inactive: 75%
14,NNC(=O)C1CCN(S(=O)(=O)c2ccccc2N)CC1,inactive: 106%
15,Cc1ccc(C)c(N2CCN(C(=O)CCS(=O)(=O)c3ccc4c(c3)CC(=O)N4C)CC2)c1,inactive: 80%
16,CCc1ccc(NC(=O)CC2C(=O)N(c3ccc(Cl)cc3)C(=O)N2Cc2cccs2)cc1 (configuration not stated),inactive: 47%
17,CCOC(=O)c1ccc(S(=O)(=O)N2CCC(C(=O)OCC)CC2)cc1,inactive: 95%
18,CCOc1ccc(NS(=O)(=O)c2ccc3c(c2)CCN3C(C)=O)cc1,inactive: 128%
19,COc1ccc(-c2cc(C(F)(F)F)nc(SCCC(=O)Nc3cc(C)on3)n2)cc1,inactive: 106%
20,COc1cccc(C2CC(=O)Nc3c2c(=O)n(C)c2ncnn32)c1OC (configuration not stated),inactive: 140%
21,COC(=O)c1c(NC(=O)COc2cc(C)c(Cl)c(C)c2)sc2c1CCCC2,inactive: 140%
22,COc1ccc(OC)c(S(=O)(=O)Nc2cc3c(C(C)=O)c(C)oc3c3ccccc23)c1,inactive: 69%
23,Cc1ccc(OCC(=O)N(Cc2ccco2)C2CCS(=O)(=O)C2)cc1 (configuration not stated),inactive: 101%

row,Structure (SMILES),survival
1,CC(Oc1ccc(F)cc1)C(=O)Nc1cc(-c2ccc(F)c(F)c2)no1 (configuration not stated),inactive: 86%
2,CC(=O)N1C(Nc2ccc(Cl)cc2)CCN1c1ccccc1 (configuration not stated),inactive: 110%
3,CN1C(=O)N(C)C2OC3OC4C(OC3OC21)N(C)C(=O)N4C (configuration not stated),inactive: 108%
4,Cn1cc(CCC(=O)NCc2ccc(Cl)cc2)c2ccccc21,inactive: 107%
5,Cc1cc(C)cc(NS(=O)(=O)c2ccc(-n3cccn3)cc2)c1,inactive: 83%
6,COc1ccc(-c2cccc(NS(=O)(=O)c3ccc(C)s3)c2)nn1,inactive: 91%
7,COCCCNC(=O)c1oc2c(c1C)-c1nn(Cc3ccc(Cl)cc3)cc1CC2,inactive: 78%
8,CCOc1cc(CNc2ccc(C(=O)O)cc2)ccc1OCc1ccccc1,inactive: 57%
9,O=C(O)c1c(-c2ccccc2)oc2ccc(OCc3ccc(Cl)c(Cl)c3)cc12,active: 0%
10,Cc1ccc(C)[n+](C)c1,inactive: 102%
11,CC1CCC(Nc2ncnc3onc(-c4ccc(F)cc4)c23)CC1 (configuration not stated),inactive: 99%
12,COc1cccc(-n2c(=O)c3c(C)c(C)sc3n(CC(=O)Nc3ccccc3OC)c2=O)c1,inactive: 87%
13,CCOc1cccc(C(=O)N(Cc2ccc(N(C)C)cc2)CC2CCCO2)c1 (configuration not stated),inactive: 96%
14,Cc1ccccc1CC1C(=O)Nc2ccc(Br)cc21 (configuration not stated),inactive: 69%
15,CCc1ccc(CNCc2c(C(=O)O)c(C)n(Cc3c(F)cccc3Cl)c2C)cc1,inactive: 101%
16,Cn1c(=O)n(C)c2cc(N3CCOCC3)c(NS(=O)(=O)c3ccc(C(C)(C)C)cc3)cc21,inactive: 81%
17,CC1CCN(S(=O)(=O)c2ccc3c(ccc(=O)n3CC(=O)Nc3ccc(C(C)C)cc3)c2)CC1,active: -2%
18,CCOc1ccc(N(C(=O)c2ccccc2F)S(=O)(=O)c2ccc3c(c2)n(C)c(=O)n3C)cc1,inactive: 80%
19,CCc1ccccc1NC(=O)N1CCC(CN2CCc3ccccc3C2)CC1,inactive: 60%
20,Cc1ccc(C(=O)CCC(=O)Nc2ccc(C)cc2C)cc1,inactive: 115%
21,CCOC(=O)c1c(-c2ccc(C)cc2)csc1NC(=O)c1cc(-c2ccc(Cl)cc2)on1,inactive: 90%
22,Nc1nc(SCC(=O)Nc2cccc(C(F)(F)F)c2)n[nH]1,inactive: 81%
23,COc1ccc(-c2nc(CCNC(=O)c3cccs3)cs2)cc1,inactive: 120%

row,Structure (SMILES),survival
1,CNC(=O)Cn1nc(-c2ccc(Cl)cc2)c2ccccc2c1=O,inactive: 76%
2,CCOC(=O)c1ccc(NC(=O)CC2Sc3ccc(C(F)(F)F)cc3NC2=O)cc1 (configuration not stated),inactive: 81%
3,N=C(N)SCC(=O)Nc1ccccc1,inactive: 120%
4,COc1ccc(NC(=O)CSC2=Nc3ccccc3C3=NC(CCC(=O)NCc4ccc(F)cc4)C(=O)N23)cc1Cl (configuration not stated),inactive: 82%
5,CCCCC(CC)CNC(=O)CN(C)S(=O)(=O)c1ccc2c(c1)c(=O)n(C)c(=O)n2C (configuration not stated),inactive: 81%
6,Cc1ccc(CN(C(=O)COc2ccc(Cl)cc2)c2ccccn2)o1,inactive: 79%
7,O=C(N=Nc1c(O)[nH]c2ccccc12)C1C2CCCCC21 (configuration not stated),inactive: 116%
8,Cc1cc(NC(=O)CCNS(=O)(=O)c2ccc3c(c2)CCCC(=O)N3)ccc1Br,inactive: 67%
9,Cc1nn(C)c2c1c(-c1ccccc1)cc(=O)n2Cc1ccccc1Cl,inactive: 72%
10,CCCSc1nsc(SCCC)c1C(N)=O,inactive: 103%
11,COc1cccc(N2CCN(C(=O)C3CCN(S(=O)(=O)c4cccc5nonc45)CC3)CC2)c1,inactive: 57%
12,COc1ccc(CCNC(=O)Cn2nc(C)n3c(cc4cc(F)ccc43)c2=O)cc1OC,inactive: 121%
13,CCOc1ccccc1NC(=O)c1c(NCc2ccc(C)o2)sc2c1CCC(C)C2 (configuration not stated),inactive: 143%
14,Cc1ccc(C)c(N2CCN(C(=O)c3cc4c(=O)n(Cc5ccco5)ccc4nc3C)CC2)c1,inactive: 84%
15,COc1cccc(C(=O)Nc2cccc(NC(=O)c3ccc(Cl)cc3Cl)c2)c1,inactive: 95%
16,CCCCN(C)C(=O)Cn1c(C2CC(=O)N(c3ccc(C)cc3)C2)nc2ccccc21 (configuration not stated),inactive: 86%
17,COc1ccc(S(=O)(=O)Nc2ccc3oc4c(c3c2)C(=O)CC(C)(C)C4)cc1,inactive: 135%
18,COC(=O)c1cc(S(=O)(=O)NCC2CCN(Cc3ccc(C)cc3)CC2)cn1C,inactive: 80%
19,CCC(C)Nc1sc(S(=O)(=O)CC)nc1S(=O)(=O)c1ccc(C)cc1 (configuration not stated),inactive: 78%
20,CCOc1ccc(CNC(=O)CCCn2nc(C)c3sc4ccccc4c3c2=O)cc1,inactive: 89%
21,Cc1ccc(C)c(NC(=O)Cn2c(=O)nc(-c3ccccc3)c3ccccc32)c1,inactive: 74%
22,COc1cc(C(=O)OC(C)CN2C(C)CCCC2C)cc(OC)c1OC (configuration not stated),inactive: 109%
23,Cc1cccc(NS(=O)(=O)c2ccc3c(c2)[C@H]2C=CC[C@H]2[C@@H](c2ccc(F)cc2)N3)c1,inactive: 58%
